Measurements reported in PubChem BioAssay AID924 (National Center for Advancing Translational Sciences (NCATS), 2007).
In all, about 130,000 compounds went through this assay and about 1,200 (0.92%) were called active. The shares of active, inactive and inconclusive entries below differ from those in the screen. Calls follow the shape of the dose curve; as a rule, active = well fitted cell-killing curve with a large enough effect; inconclusive = small, poorly fitted or top-dose-only effect; inactive = no such curve, though single readings can be large or run the other way. Potencies of inconclusive entries are doubtful fits and often do not repeat.

Test: qHTS Screen for Compounds that Selectively Target Cancer Cells with p53 Mutations: Cytotoxicity of p53ts Cells at the Permissive Temperature; also: nearly all actives have a fitted effect of over 55% in size;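 as to activity change, negative = cytotoxicity: 0% = DMSO and -100% = full killing by reference compound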
Settings: H1299-p53A138V at 32C, ATP luminescence viability, 24 h; activity change, negative = cytotoxicity: at 46.1 µM (top of the series)
Outline: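 Cells: H1299 p53ts (A138V), 600/well, pre-incubated 16–30 h at 37C. Cpd up to 46 uM, 24 h, 32C. Readout: ATPlite luminescence, 20 min RT. Normalization: DMSO vs tamoxifen 100 uM. AC50 by Hill equation.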
Potency is read from the fitted curve at half-maximal effect; tags tell the direction and shape of the fitted curve.

Structure (SMILES) | Potency | activity change, negative = cytotoxicity
COc1ccc(NC(=O)c2ccco2)cc1N | inconclusive: 12.6 µM [cytotoxic, single point] | 
O=C(Nc1cccc(C(=O)N2CCCCC2)c1)c1nsc2ccccc12 | active: 15.8 µM | 
C=C1C(=O)OC2C[C@@]3(C)CCCC(C)C3=CC12 (some centres not stated) | inconclusive: 31.6 µM [cytotoxic, single point] | 
CC(=O)Nc1cccc(NC(=O)CSc2cn(CC(=O)N3CCCC3)c3ccccc23)c1 | inactive | 
COc1ccccc1C(=O)Nc1ccc2c(c1)nc1n2CCSC1 | active: 3.98 µM | 
CCc1c(C)sc2c1CCN(C(=O)Nc1ccccc1Cl)C2c1ccc(OC)cc1 (configuration not stated) | inactive | 
COc1cc(NC(=O)c2ccco2)c(OC)cc1NC(=O)Nc1ccccc1Cl | inconclusive: 12.6 µM [cytotoxic, single point] | 
CS(=O)(=O)c1ncc(Cl)c(C(=O)N(Cc2ccc(Cl)cc2)Cc2ccco2)n1 | active: 28.2 µM | 
Cc1ccc(-n2nc(C(=O)NC(C)C)c(=O)n(C)c2=O)cc1 | inactive | 
c1ccc2c(c1)c1ccccc1n2Cn1c2ccccc2c2ccccc21 |  | inactive: -6.53% [at 9.22 µM]
O=C(CCCCCNc1nc(=S)[nH]c2ccccc12)N1CCN(c2ccccn2)CC1 | inconclusive: 7.94 µM [cytotoxic, partial curve] | 
Clc1cc(Cl)c(OCc2nc(-c3ccccn3)no2)cc1Cl | inconclusive: 12.6 µM [cytotoxic, single point] | 
COC(=O)c1ccc(C(NC(=O)OCc2ccccc2)/C(F)=C/[C@@H](C)C(=O)NC2CCCCC2)cc1 (some centres not stated) | inconclusive: 31.6 µM [cytotoxic, single point] | 
O=C(NC1CCCC1)c1ccc(CSc2nc3cccnc3n2Cc2cccc(F)c2)cc1 | inactive | 
COC(=O)c1ccc(OCC2c3cc(OC)c(OC)cc3CCN2C(=O)c2ccc(OC)cc2)cc1 (configuration not stated) | inconclusive: 0.355 µM [cytotoxic, full curve, poor fit] | 
Cn1nnnc1SCCCNCc1cc(Br)ccc1OCc1ccccc1 | inconclusive: 22.4 µM [cytotoxic, single point] | 
Cc1oc(-c2ccccc2Cl)nc1CS(=O)CC(=O)N1CCN(c2cccc(C(F)(F)F)c2)CC1 (configuration not stated) | inconclusive: 31.6 µM [cytotoxic, single point] | 
C[C@@H]1O[C@H]2C3=C(C(=O)[C@H]4O[C@@H]4[C@H]3O)[C@@H]1[C@@H]1[C@@H](C)OC=C3[C@H](O)[C@H]4O[C@@H]4/C(=N\OCc4ccccc4)[C@]312 | inconclusive: 5.01 µM [cytotoxic, single point] | 
CCCOc1cccc(C(=O)Nc2cc(-c3nc4ccccc4[nH]3)ccc2C)c1 | inconclusive: 35.5 µM [cytotoxic, single point] | 
CCN(CC)S(=O)(=O)c1ccc2nc(NC(=O)c3cccs3)sc2c1 | inconclusive: 25.1 µM [cytotoxic, single point] | 
CC(=O)Nc1ccc(-c2csc(NCc3ccco3)n2)cc1 | inconclusive: 12.6 µM [cytotoxic, single point] | 
COC(=O)/C=C\c1cc(O)ccc1O | inconclusive: 31.6 µM [cytotoxic, single point] | 
CC(C)(C)n1ncc2c(=O)n(CC(=O)OCc3ccccc3)cnc21 | inconclusive: 25.1 µM [cytotoxic, single point] | 

Structure (SMILES) | Potency | activity change, negative = cytotoxicity
Cc1ccc(-n2ncc3c(N4CCCCC4)ncnc32)cc1Cl | inconclusive: 1 µM [cytotoxic, partial curve] | 
CCOC(=O)N1CCC(NC(=O)CSc2cc(=O)n(C)c3ccccc23)CC1 | inconclusive: 1.58 µM [cytotoxic, partial curve] | 
O=C(c1scc2c1CCCC2)N1CCCCC1 | inconclusive: 0.316 µM [cytotoxic, full curve] | 
COc1ccccc1/C=C/C(=O)Nc1nc2n(n1)C(c1ccc(F)cc1)C=C(c1ccccc1)N2 (configuration not stated) | inconclusive: 3.98 µM [cytotoxic, full curve, poor fit] | 
CSc1nc(NC2CCCC2)c([N+](=O)[O-])c(NC2CCCC2)n1 | inactive | 
Cc1ccc(C)c(Nc2nn3c(=O)c4ccc(C(=O)NCc5ccccc5)cc4nc3s2)c1 | inconclusive: 3.16 µM [cytotoxic, full curve, poor fit] | 
Clc1ccc(-c2nnc(SCc3ccon3)o2)c(Cl)c1 | active: 10 µM | 
CNC(=O)c1cc2c(cn1)[nH]c1ccccc12 | inconclusive: 7.94 µM [cytotoxic, partial curve, poor fit] | 
C[C@@H](/C=C\c1cccc(Oc2ccc(F)cc2)c1)N(O)C(N)=O | active: 31.6 µM | 
CN(C(=O)c1ccco1)c1nnc(C23CC4CC(CC(C4)C2)C3)s1 | inconclusive: 12.6 µM [cytotoxic, partial curve] | 
CCOC(=O)c1ccc(-n2c(CCC(=O)O)ccc2-c2ccccc2)cc1O | inactive | 
Cc1ccsc1C(=O)OCc1csc(-c2ccccc2)n1 | inconclusive: 3.16 µM [cytotoxic, single point] | 
Cc1ccc(C)c(NC(=O)c2nc(S(=O)(=O)Cc3ccc(F)cc3)ncc2Cl)c1 | inconclusive: 25.1 µM [cytotoxic, single point] | 
COc1cccc(-c2cc(C(=O)NC3CCCC3)no2)c1 | inconclusive: 12.6 µM [cytotoxic, single point] | 
CCOc1ccc(NC(=O)c2nc(S(=O)(=O)Cc3ccccc3F)ncc2Cl)cc1 | active: 14.1 µM | 
N=C(N)c1ccc(/C=C\c2ccc(C(=N)N)cc2)cc1 |  | inactive: 10.9% [at 9.22 µM]
CSc1ccccc1-c1nnc(NC(=O)c2ccc3c(c2)OCCO3)o1 | inconclusive: 12.6 µM [cytotoxic, partial curve] | 
O=C(Nc1nnc(/N=C/c2ccco2)s1)c1ccc(F)cc1 | active: 10 µM | 
COc1ccc(NC(=O)c2cc3cc(C)ccc3[nH]2)cc1 | inconclusive: 35.5 µM [cytotoxic, single point] | 
Cc1cc(Br)ccc1NC(=O)CSc1c2c(nc3ccccc13)CCC2 | inconclusive: 25.1 µM [cytotoxic, single point] | 
Nc1ncn([C@@H]2O[C@H](CO)[C@@H](O)[C@H]2O)c(=O)n1 | inconclusive: 3.16 µM [cytotoxic, full curve, poor fit] | 
Cc1ccc(-c2cnc(-c3ccncc3)o2)cc1 | inconclusive: 12.6 µM [cytotoxic, partial curve] | 
O=C(Nc1cccc(S(=O)(=O)C(F)F)c1)c1ccc(Cl)c(S(=O)(=O)N2CCOCC2)c1 | inconclusive: 25.1 µM [cytotoxic, single point] | 

Structure (SMILES) | Potency | activity change, negative = cytotoxicity
Cc1cnc(CNc2cc(-c3ccc(N(C)C)cc3)ncn2)cn1 | inconclusive: 12.6 µM [cytotoxic, partial curve] | 
CCc1cc2ccccc2nc1SCC(=O)Nc1cc(C)on1 | inconclusive: 20 µM [cytotoxic, single point] | 
CC(=O)Nc1ccc(-c2nc3ccc(Cl)cc3[nH]2)cc1 | inconclusive: 3.98 µM [cytotoxic, full curve] | 
Oc1cc(O)cc(/C=C\c2ccc(O)c(O)c2)c1 | active: 12.6 µM | 
CCc1ccc(C(=O)N2CCCC2)s1 | inactive | 
O=C(COc1cccc(-n2cnnn2)c1)Nc1ccccc1 | inconclusive: 4.47 µM [cytotoxic, partial curve, poor fit] | 
Cc1cc(=O)[nH]c(SCC(=O)Nc2ccc(S(=O)(=O)N3CCCCC3)cc2)n1 | inconclusive: 12.6 µM [cytotoxic, single point] | 
O=C(N[C@@H](Cc1ccccc1)C(=O)CCl)OCc1ccccc1 | active: 3.98 µM | 
COc1cccc(-c2cn3nc4c(nc3n2)CCCC4)c1 | active: 5.01 µM | 
COc1ccc(CCN2C(=O)c3[nH]nc(-c4ccccc4O)c3C2c2ccccc2)cc1 (configuration not stated) | inconclusive: 22.4 µM [cytotoxic, single point] | 
CCCCCCCCNC(=O)/C(C#N)=C/c1ccccc1[N+](=O)[O-] | inconclusive: 14.1 µM [cytotoxic, single point] | 
C[C@H]1[C@H](C)CC[C@]2(C(=O)O)CC[C@]3(C)C(=CCC4[C@@]5(C)C[C@@H](O)[C@H](O)[C@@](C)(CO)[C@@H]5CC[C@]43C)[C@H]12 (some centres not stated) | inconclusive: 31.6 µM [cytotoxic, single point] | 
CCOC(=O)/C(C#N)=C/c1ccc(-c2ccc(C)cc2)o1 | inconclusive: 12.6 µM [cytotoxic, single point] | 
CC(C)n1c(=N)c(C(=O)NC2CCCCC2)cc2c(=O)n3ccccc3nc21 | inactive | 
CCCC(=O)Nc1cccc(-c2cn3ccsc3n2)c1 | inconclusive: 10 µM [cytotoxic, partial curve] | 
COc1cccc(OC)c1C(=O)Nc1ccc(S(=O)(=O)Nc2nccc(C)n2)cc1 | inactive | 
O=C1c2ccccc2NC(c2ccc3c(c2)OCO3)N1O (configuration not stated) | inconclusive: 12.6 µM [cytotoxic, single point] | 
CCN1CCN(c2cc(C)c3cc(NC(=O)c4cc(Cl)ccc4OC)ccc3n2)CC1 | inconclusive: 25.1 µM [cytotoxic, single point] | 
Cc1cccc(N2CCN(C(=O)CCSCc3ccccc3F)CC2)c1C | inconclusive: 35.5 µM [cytotoxic, single point] | 
Cc1ncoc1C(=O)Nc1ccc2c(c1)OCCO2 | inconclusive: 12.6 µM [cytotoxic, partial curve] | 
COc1cccc(-c2cc(=O)c3cc(O)ccc3o2)c1 | inconclusive: 6.31 µM [cytotoxic, partial curve] | 
